The BET-seq Pho4 binding data (Le et al. 2018)
This is one part of the list. These are noisy estimates, calculated here from bound and input reads.

Biological target: T1, Pho4 (S. cerevisiae) (UniProt P07270)
T1 sequence: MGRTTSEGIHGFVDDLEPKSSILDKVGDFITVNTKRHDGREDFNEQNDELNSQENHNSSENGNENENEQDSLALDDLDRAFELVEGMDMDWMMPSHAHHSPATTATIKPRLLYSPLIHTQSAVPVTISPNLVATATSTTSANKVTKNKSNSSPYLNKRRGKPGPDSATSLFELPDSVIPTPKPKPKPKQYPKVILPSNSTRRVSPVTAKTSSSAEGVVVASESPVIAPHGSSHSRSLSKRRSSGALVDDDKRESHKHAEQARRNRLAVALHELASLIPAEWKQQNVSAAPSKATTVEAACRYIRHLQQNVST
Assay: relative binding free energy (BET-seq); higher = weaker binding
Conditions: reference: library average

Row | Sequence | relative binding free energy [kcal/mol]
1 | GATCTCACGTGGGTGT | 0.06
2 | ACAGCCACGTGTGGGG | 0
3 | CGAAACACGTGGTGTA | -0.05
4 | TAGGCCACGTGAAGGG | 0.15
5 | GGTAGCACGTGACGTT | 0.09
6 | TGGTGCACGTGATCGA | 0.09
7 | CTAGACACGTGCTGGG | 0.08
8 | GTGAGCACGTGTTACG | -0.02
9 | CGTATCACGTGTATGA | 0.17
10 | GCGAGCACGTGGGATT | 0.06
11 | GTGTGCACGTGTGTGG | 0.1
12 | AAGTGCACGTGCGTAG | -0.05
13 | AGTTGCACGTGGAGCA | -0.05
14 | AGTTTCACGTGTAGAA | 0.3
15 | GTGGTCACGTGGGTAA | 0.03
16 | TGGCGCACGTGTATTG | -0.08
17 | CAGGGCACGTGTTGTC | 0.04
18 | TGGCTCACGTGAGAAG | 0.53
19 | CGTTTCACGTGAGTTA | 0.21
20 | GTCACCACGTGGGGGG | -0.11
21 | TGCTACACGTGTGAGG | 0.13
22 | TTGCGCACGTGTTTTA | -0.2
23 | TTCGTCACGTGGAGGA | 0.09
24 | TTCGTCACGTGTAGGA | 0.28
25 | TATGACACGTGGTATG | -0.08

Row | Sequence | relative binding free energy [kcal/mol]
26 | GGGTACACGTGTAATT | 0.17
27 | GTCATCACGTGGTGGC | 0.07
28 | GGGTGCACGTGAAAAG | 0.22
29 | GATTGCACGTGGTGAT | 0.12
30 | TAGGGCACGTGGTGCA | -0.18
31 | TGGTGCACGTGCTGTC | -0.05
32 | GCGGTCACGTGTTAGG | 0.28
33 | GAGTCCACGTGGCGGG | -0.05
34 | GAGTGCACGTGTGGCC | 0.07
35 | CTGGGCACGTGGGTAC | -0.31
36 | AGTGACACGTGTACGT | 0.11
37 | GTAAGCACGTGTGTGC | -0.19
38 | AGACGCACGTGAGGTT | 0.12
39 | TTAGTCACGTGAGTAT | 0.21
40 | TGGGTCACGTGCTTTG | 0.06
41 | TAAGTCACGTGCTGGA | 0.1
42 | GGCTGCACGTGAGGTT | 0.25
43 | TAAGACACGTGTCGTT | 0.16
44 | GTGGACACGTGTTTTC | 0.09
45 | GCTTTCACGTGGTTTG | 0.3
46 | TTTTCCACGTGTGAAT | 0.21
47 | AACATCACGTGTGTTG | 0.22
48 | GTACTCACGTGAGGGA | 0.35
49 | GCTTTCACGTGTGCTT | 0.37
50 | AACAGCACGTGTGGTG | 0.03

Row | Sequence | relative binding free energy [kcal/mol]
51 | AGTGTCACGTGACTTG | -0.03
52 | GGTTGCACGTGGTCCT | 0.02
53 | TATGTCACGTGATTCA | 0.16
54 | TAATTCACGTGATCTG | 0.26
55 | TATGGCACGTGTAATT | 0.01
56 | TGGCGCACGTGCGGGT | -0.1
57 | GATCACACGTGAGTGG | 0.37
58 | ATGCGCACGTGGGCAT | -0.2
59 | CAGGTCACGTGGGTGA | -0.06
60 | ATGAGCACGTGTAATG | -0.1
61 | GGGCCCACGTGGTGTT | -0.07
62 | TGTCACACGTGATTGT | 0.16
63 | GGTAGCACGTGTAATA | -0.03
64 | GTTATCACGTGGTTGG | 0.19
65 | TTGGGCACGTGTAGTA | -0.04
66 | ATAGCCACGTGGTGGA | -0.13
67 | TATAGCACGTGAGTTG | 0.28
68 | AAGTTCACGTGGCGAT | 0.24
69 | GTATACACGTGGGCGT | -0.24
70 | TGGCGCACGTGGCTGG | -0.23
71 | ATGGGCACGTGTTACG | -0.2
72 | CTTATCACGTGTTGCT | 0.13
73 | TGGGACACGTGATGGC | -0.02
